# According to the supplement of paper PMC8728848:
# Some of the results follow.
# B1: Morniga (Morus nigra) (protein)
# chain: MAGTSTNTQTTGTSQTVEVGLWGGPGGNAWDDGSYTGIREINLSHGDAIGAFSVIYDLNGQPFTGPTHPGNEPSFKTVKITLDFPNEFLVSVSGYTGVLPRLATGKDVIRSLTFKTNKKTYGPYGKEEGTPFSLPIENGLIVGFKGRSGFVVDAIGVHLS
# Assays:
# Test in all cases: glycan array binding signal (z-score within array); higher = stronger binding
# Conditions in all cases: glycan notation: IUPAC condensed, linker removed
# Gal3S4S(b1-4)GlcNAc = target: Gal3S4S(b1-4)GlcNAc
# Method in brief: (§1)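 Columns mapping to the same glycan were averaged after glycan names were converted to IUPAC-condensed notation. The data come from 3228 arrays in the Consortium for Functional Glycomics database, limited to those with an available protein sequence. Binding is reported as a within-array Z-score averaged across arrays of one protein sequence and across linkers.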
# Gal3S6S(b1-4)GlcNAc = target: Gal3S6S(b1-4)GlcNAc
# Method in brief: as §1
# Gal3S6S(b1-4)GlcNAc6S = target: Gal3S6S(b1-4)GlcNAc6S
# Method in brief: as §1
# Gal4S(b1-4)GlcNAc = target: Gal4S(b1-4)GlcNAc
# Method in brief: as §1
# Gal4S6S(b1-4)GlcNAc = target: Gal4S6S(b1-4)GlcNAc
# Method in brief: as §1
# Gal6P(b1-4)GlcNAc = target: Gal6P(b1-4)GlcNAc
# Method in brief: as §1
# Gal6S(b1-3)GlcNAc = target: Gal6S(b1-3)GlcNAc
# Method in brief: as §1
# Gal6S(b1-3)GlcNAc6S = target: Gal6S(b1-3)GlcNAc6S
# Method in brief: as §1
# Gal6S(b1-4)Glc = target: Gal6S(b1-4)Glc
# Method in brief: as §1
# Gal6S(b1-4)Glc6S = target: Gal6S(b1-4)Glc6S
# Method in brief: as §1
# Gal6S(b1-4)GlcNAc = target: Gal6S(b1-4)GlcNAc
# Method in brief: as §1
# Gal6S(b1-4)GlcNAc6S = target: Gal6S(b1-4)GlcNAc6S
# Method in brief: as §1
# GalNAc(a1-3)Gal = target: GalNAc(a1-3)Gal
# Method in brief: as §1
# GalNAc(a1-3)GalNAc = target: GalNAc(a1-3)GalNAc
# Method in brief: as §1
# [1] = target: GalNAc(a1-3)GalNAc(b1-3)Gal(a1-4)Gal(b1-4)Glc
# Method in brief: as §1
# [2] = target: GalNAc(a1-3)GalNAc(b1-3)Gal(a1-4)Gal(b1-4)GlcNAc
# Method in brief: as §1
# GalNAc(b1-3)Gal = target: GalNAc(b1-3)Gal
# Method in brief: as §1
# [3] = target: GalNAc(b1-3)Gal(a1-4)Gal(b1-4)GlcNAc
# Method in brief: as §1
# [4] = target: GalNAc(b1-3)Gal(a1-4)Gal(b1-4)GlcNAc(b1-3)Gal(b1-4)Glc
# Method in brief: as §1
# [5] = target: GalNAc(b1-3)Gal(a1-6)Gal(b1-4)Glc
# Method in brief: as §1
# GalNAc(b1-3)GalNAc = target: GalNAc(b1-3)GalNAc
# Method in brief: as §1
# GalNAc(b1-4)Gal(b1-4)Glc = target: GalNAc(b1-4)Gal(b1-4)Glc
# Method in brief: as §1
# GalNAc(b1-4)GlcNAc = target: GalNAc(b1-4)GlcNAc
# Method in brief: as §1
# [6] = target: GalNAc(b1-4)GlcNAc(b1-2)Man(a1-3)[GalNAc(b1-4)GlcNAc(b1-2)Man(a1-6)]Man(b1-4)GlcNAc(b1-4)GlcNAc
# Method in brief: as §1
# GalNAc(b1-4)GlcNAc6S = target: GalNAc(b1-4)GlcNAc6S
# Method in brief: as §1
# GalNAc(b1-6)GalNAc = target: GalNAc(b1-6)GalNAc
# Method in brief: as §1
# GalNAc3S(b1-4)GlcNAc = target: GalNAc3S(b1-4)GlcNAc
# Method in brief: as §1
# GalNAc3S(b1-4)GlcNAc3S = target: GalNAc3S(b1-4)GlcNAc3S
# Method in brief: as §1
# GalNAc4S6S(b1-4)GlcNAc = target: GalNAc4S6S(b1-4)GlcNAc
# Method in brief: as §1
# GalNAc6S(b1-4)GlcNAc = target: GalNAc6S(b1-4)GlcNAc
# Method in brief: as §1
# Glc(a1-4)Glc = target: Glc(a1-4)Glc
# Method in brief: as §1
# [7] = target: Glc(a1-4)Glc(a1-4)Glc(a1-4)Glc
# Method in brief: as §1
# Glc(a1-6)Glc(a1-6)Glc = target: Glc(a1-6)Glc(a1-6)Glc
# Method in brief: as §1
# [8] = target: Glc(a1-6)Glc(a1-6)Glc(a1-6)Glc
# Method in brief: as §1
# Glc(b1-4)Glc = target: Glc(b1-4)Glc
# Method in brief: as §1
# Glc(b1-6)Glc = target: Glc(b1-6)Glc
# Method in brief: as §1
# GlcA(b1-3)Gal = target: GlcA(b1-3)Gal
# Method in brief: as §1
# GlcA(b1-3)GlcNAc = target: GlcA(b1-3)GlcNAc
# Method in brief: as §1
# GlcA(b1-6)Gal = target: GlcA(b1-6)Gal
# Method in brief: as §1
# [9] = target: GlcNAc(a1-3)Gal(b1-4)GlcNAc
# Method in brief: as §1
# [10] = target: GlcNAc(a1-4)Gal(b1-3)GlcNAc
# Method in brief: as §1
# [11] = target: GlcNAc(a1-4)Gal(b1-4)GalNAc
# Method in brief: as §1
# [12] = target: GlcNAc(a1-4)Gal(b1-4)GlcNAc
# Method in brief: as §1
# [13] = target: GlcNAc(a1-4)Gal(b1-4)GlcNAc(b1-3)Gal(b1-4)Glc
# Method in brief: as §1
# [14] = target: GlcNAc(a1-4)Gal(b1-4)GlcNAc(b1-3)Gal(b1-4)GlcNAc
# Method in brief: as §1
binder,measurement,setting,value
B1,glycan array binding signal (z-score),Gal3S4S(b1-4)GlcNAc,-0.337
same,glycan array binding signal (z-score),Gal3S6S(b1-4)GlcNAc,-0.338
same,glycan array binding signal (z-score),Gal3S6S(b1-4)GlcNAc6S,-0.316
same,glycan array binding signal (z-score),Gal4S(b1-4)GlcNAc,-0.344
same,glycan array binding signal (z-score),Gal4S6S(b1-4)GlcNAc,-0.324
same,glycan array binding signal (z-score),Gal6P(b1-4)GlcNAc,-0.331
same,glycan array binding signal (z-score),Gal6S(b1-3)GlcNAc,-0.338
same,glycan array binding signal (z-score),Gal6S(b1-3)GlcNAc6S,-0.334
same,glycan array binding signal (z-score),Gal6S(b1-4)Glc,-0.338
same,glycan array binding signal (z-score),Gal6S(b1-4)Glc6S,-0.342
same,glycan array binding signal (z-score),Gal6S(b1-4)GlcNAc,-0.335
same,glycan array binding signal (z-score),Gal6S(b1-4)GlcNAc6S,-0.337
same,glycan array binding signal (z-score),GalNAc(a1-3)Gal,-0.309
same,glycan array binding signal (z-score),GalNAc(a1-3)GalNAc,-0.334
same,glycan array binding signal (z-score),[1],-0.333
same,glycan array binding signal (z-score),[2],-0.345
same,glycan array binding signal (z-score),GalNAc(b1-3)Gal,-0.329
same,glycan array binding signal (z-score),[3],-0.321
same,glycan array binding signal (z-score),[4],-0.342
same,glycan array binding signal (z-score),[5],-0.334
same,glycan array binding signal (z-score),GalNAc(b1-3)GalNAc,-0.327
same,glycan array binding signal (z-score),GalNAc(b1-4)Gal(b1-4)Glc,-0.334
same,glycan array binding signal (z-score),GalNAc(b1-4)GlcNAc,-0.327
same,glycan array binding signal (z-score),[6],-0.138
same,glycan array binding signal (z-score),GalNAc(b1-4)GlcNAc6S,-0.341
same,glycan array binding signal (z-score),GalNAc(b1-6)GalNAc,-0.336
same,glycan array binding signal (z-score),GalNAc3S(b1-4)GlcNAc,-0.338
same,glycan array binding signal (z-score),GalNAc3S(b1-4)GlcNAc3S,-0.321
same,glycan array binding signal (z-score),GalNAc4S6S(b1-4)GlcNAc,-0.338
same,glycan array binding signal (z-score),GalNAc6S(b1-4)GlcNAc,-0.333
same,glycan array binding signal (z-score),Glc(a1-4)Glc,-0.339
same,glycan array binding signal (z-score),[7],-0.335
same,glycan array binding signal (z-score),Glc(a1-6)Glc(a1-6)Glc,-0.329
same,glycan array binding signal (z-score),[8],-0.337
same,glycan array binding signal (z-score),Glc(b1-4)Glc,-0.335
same,glycan array binding signal (z-score),Glc(b1-6)Glc,-0.332
same,glycan array binding signal (z-score),GlcA(b1-3)Gal,-0.333
same,glycan array binding signal (z-score),GlcA(b1-3)GlcNAc,-0.318
same,glycan array binding signal (z-score),GlcA(b1-6)Gal,-0.337
same,glycan array binding signal (z-score),[9],-0.324
same,glycan array binding signal (z-score),[10],-0.337
same,glycan array binding signal (z-score),[11],-0.314
same,glycan array binding signal (z-score),[12],-0.296
same,glycan array binding signal (z-score),[13],-0.334
same,glycan array binding signal (z-score),[14],-0.257
